The values that follow come from paper PMC10726135.

The list shows a part of the results. At the low end of the ranking the order means little. Measured with an extract: partners may take part in the binding.

This assay has as its target T1, HNF4alpha2 (COS-7 nuclear extract) (UniProt P41235).
T1 sequence: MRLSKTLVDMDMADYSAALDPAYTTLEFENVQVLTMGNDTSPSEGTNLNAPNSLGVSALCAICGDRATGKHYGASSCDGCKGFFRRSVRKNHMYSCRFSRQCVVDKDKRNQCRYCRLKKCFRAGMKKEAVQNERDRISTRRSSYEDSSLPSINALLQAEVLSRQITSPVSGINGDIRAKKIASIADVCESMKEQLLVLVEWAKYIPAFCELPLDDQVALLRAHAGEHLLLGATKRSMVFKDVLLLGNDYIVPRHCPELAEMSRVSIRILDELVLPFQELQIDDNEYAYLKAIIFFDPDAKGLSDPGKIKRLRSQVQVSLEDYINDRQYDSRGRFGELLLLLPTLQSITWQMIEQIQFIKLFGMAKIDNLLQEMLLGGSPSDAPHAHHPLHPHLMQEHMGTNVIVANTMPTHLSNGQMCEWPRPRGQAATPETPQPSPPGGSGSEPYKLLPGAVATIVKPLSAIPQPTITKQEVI
Description: protein-binding microarray. To be noted: COS-7 nuclear extract on double-stranded Agilent 4x180k PBM; binding buffer, salt, pH and temperature not given; high values mean tight binding; double strand, one strand shown; sequences stand for … in …GCCTAGGGAGATTAGAGTATCGGTCGA
Consider TGCTGGAAACCTAGGAGTTATCTAAGACCC, for which the binding signal (log2 normalized intensity) is -1.15.

On to GGGCCATGACCTTTACCCCCATTTGGTAAT, for which the binding signal (log2 normalized intensity) was determined as 6.29. On to AAGGTCAAACAGTGCACTGAAATCTCTCAA, for which the binding signal (log2 normalized intensity) was -1.1. In the case of CAGTGATATTCTCTCGTCACCTCCACCCAC, the binding signal (log2 normalized intensity) is 2.81. GCTCTGGCCACTCCCTGGGCAGTGCAGTAT: the binding signal (log2 normalized intensity) was -1.06.

On to TCCCCACCCCCAACTTCCCCAACCCTTGCA, for which the binding signal (log2 normalized intensity) came out at 6.3. Then TCCCAGCATTCCAAGTGAGTAAGGAAAGCC, with -1.17; and AGACCCTCTTTTCTTTGTACCGTATTTCAG, with 1.74; and GCAACTACTCTCTCTTCTGGAGGAGGATCA, with -1.04.

Regarding TAGGTATGCCCCATGGTAAGAACTACAGTT, the binding signal (log2 normalized intensity) stood at 0.881. The figure for CATCCTGAACAAATGTACTGGATATAGCCA is -0.545. Then TTGCCATGACCTTTGAAGCCCAGAACACTC, with 3.59; and CCCAGCGGAAGTCCAGTGGTGTCTTACCGG, with 0.489; and TTCTGGAGGATTAGTGGGAGATAAGGTGGA, with 0.815.

In the case of TCTTAGGAAAGCACAGCTGATTGCTCAACC, the binding signal (log2 normalized intensity) is -1.19. Then TGGTTCCTGGAAAAGTCTCAGGGGCCTTGC, with -0.0705; and TTGGACAGAGTTTGTGGTGTTTGTGGCATT, with 2.07; and AAGGTCAATCTGGATTGTACTGTGTCTTGA, with 2.52.

For the sequence TGTTATCTCAGTAGACTAACGTATGGACTT, the binding signal (log2 normalized intensity) came out at 2.63. As for CTTCGGCCAGCACAGGAGGCCTCTCAAAGC, the binding signal (log2 normalized intensity) is -1.07. The figure for GCTACACAGATAAGCCATTCGTAACCTTCA is -0.598. As for GACATTCAATTGCAAGCTTATCTTCCCAGG, the binding signal (log2 normalized intensity) is -0.941. The figure for TGAATGTCCAACTTGCCCTGGTCTCACATC is 0.676; for CACGTGGCTAGATTGCAACCAAGTCCATCT it is 0.0671; for TAATTCTTCAAAGGAGTGGAGGAAGGAAGA it is -0.71.

As to GGAATGAAAGGAGGTCATGTACATGAAAGC, the binding signal (log2 normalized intensity) turned out to be 1.64.

As to AGCACCTGAAGAATTTGGACTTTGCACTAA, the binding signal (log2 normalized intensity) was 8.43. On to CGGCTGGTATCCACAGGAGGCCCCATCGCA, for which the binding signal (log2 normalized intensity) is -1.17. Then AATGGCAGACTAAACTCACAATGGGGCATG, with -1.06; and AGGGTTGGAATGTCTTTGGGTGGAGGGGAG, with -0.603. The figure for TAAACAGTGACTCATGCAAGCCTGAGGGAG is -1.1. Then CGAGAGAGCCTGGACACACGAATAATGGAG, with -1.18; and AAACCTGGTAGCGTGTAGTAAAGCTCATGA, with -1.08; and AAGCAAACATACTGCTTATTTAAATTTCTT, with -1.13. As for GCTCTCCGTGGACTTTGCCCCCTACAGTTT, the binding signal (log2 normalized intensity) came out at 9.73. Take TCTGATGGCGTATGCAGCAGGGCAGCAGCC: the binding signal (log2 normalized intensity) is -1.02. Turning to GTAGAGAGCAGTCCTGCACATGAATGATCA, the binding signal (log2 normalized intensity) was -0.769.

In the case of TTTTGTAGATGCCTGCTTTCCACTCCCATT, the binding signal (log2 normalized intensity) is 1.36. Then GGAGGTCTGGAATGTGGAGAATGGCAAGAG, with -0.483; and AACTTCTTATCACTTGGTGGACATGGTTCA, with 2.02. Consider TTGAATTCCTTCTTCTTCTGGGGACTTCGG, for which the binding signal (log2 normalized intensity) was 1.92. Then CTTCAAACCTGGGAAAACTTACGCACATTA, with -1.07; and GTTAGTGCCCTCTGGTGGCACACAGAGGAC, with -0.856; and GGAGCATCTATTTTCTATTTCCACTGAGGT, with 0.713.

Turning to TGGACTTTTATGTTAAGATCAAACAGGGAC, the binding signal (log2 normalized intensity) stood at 0.692. Then TGAAACATATCCAGAATGTGTTTGCTTTTT, with 1.55; and ATTCCAAAAAGCTTTTGTCATGACCTTCGC, with 4.71; and TAAAGTGACTAGAGAGCAGGAGCCACCTGT, with -1.2. Then CCTCCTAAGTAGCCAAGATTACAGCCACAT, with -1.07; and CCAGCCAGTAGGAGTTGGAACGGGGGCAAG, with -1.12. Turning to ACAGGTGTGGGTTCAAATCCATTCAGCAGC, the binding signal (log2 normalized intensity) came to 0.0414. Then GGCTTCTTATCAGCAGCTGGGGTGACTGAT, with 1.19; and GCAGAGAAGACTTGGGGGAGGAGGGCAACC, with -1.08. The figure for TCTCGGTCAAACCTTTGACCCTTTATAATC is 5.95. Consider AAGTCAGAGGCCCAGCAAGGAGAAAGCGAG, for which the binding signal (log2 normalized intensity) was -1.2. As to TGCTCCAGGCCGGCTTGCGTCCCCAGGTGA, the binding signal (log2 normalized intensity) is -1.03. The figure for ACTTAGGACACAAAGAGTTCAGAGAGGGAT is -0.914. Then CGCCGGGCGCCGCTCTGAGTGACCTTTCAC, with 4.57; and TGAAGACAGGCCAGGGTGATCAAACATCAC, with -1.18; and CTGGCTGGGCAGGCTCCCTCCCTGGGAGGC, with -1.01. Then TCATTCCTCAAATGCTCCTTTGAACAACTC, with 0.907; and TCCAAAGGTAATGGTCTCTCCCAGCGGGTC, with -0.215; and GTCTCTCTCATTCACACCCTCAGCTGATGG, with -1.18. For GAGGATGGGAAGTCCAAAGTCTGCAGGGTA, the binding signal (log2 normalized intensity) is 3.1. Then AAGCCTGATGAAGCCTATAGTGCTCCCTCC, with -1.21; and CACAGCAGAGGAGCCCTGGGCTCAGAAATC, with -1.19. The figure for CAAACGCCCCTTGGATGAATGGCTGATTGG is 0.0149; for CAGGTTCTGCAACACTTTCTAAGGACACAA it is -0.856; for ACTTCGACCTCACATTGTAGCTAAAATGTT it is 0.48. The figure for TGTTTAGCCCAATAAAATCTGGCAGCTTAA is -1.16; for AGTAGGCACTATTATCCCCCTATCCCAAGA it is 4.83; for TATTGGGAGGCCCATTGTGCTGGGGGCAAG it is 1.55. For TCCTCTATCTTCAAAGCCAGCAACGGTGAG, the binding signal (log2 normalized intensity) was 0.28. Then CAGTTGACCTTTGAACACCACAAGTTTGAA, with 6.31; and GCAAAGATCAGTGAGAAGAGAAACACATGC, with -1.15. Take ATTCCAGGAAGGTCTGATGGGCCAGGCAGG: the binding signal (log2 normalized intensity) is -1.14.

On to GTGGTGTCTTACCGGGATTTTGTTGGGGAA, for which the binding signal (log2 normalized intensity) is 1.09. The figure for GCCGGCTCTGAAGAGAACGGCTGATTCTGA is -1.26; for TTGAAATGTTATCATTAGGGAAAATAGTGA it is 1.31. Consider TCCTCCTTTTTTTTTTCAAGTGTTAGCTGT, for which the binding signal (log2 normalized intensity) turned out to be 1.74. The figure for CCTGGGTCAAATTGGTGCTTTCATCCCCTG is 1.56; for AAAGTGACCCTCTGCCCCCTACACAGAGGA it is 4.47.

Regarding ACGACTTGCTTATCTTACGCAACTGAAATT, the binding signal (log2 normalized intensity) was -1.12. Then GCACGAAAAACAGGTAGTTTGCAGTCTGAG, with 0.261; and GTGACGGAGGTGACCTTTGGTTGTCCTTAC, with 4.31. The figure for AACACCAGCAACCGCCTACCTTTGGACTTC is 5.43; for ACTGAGAAACCAAGATCCTAGTCTTTAGAG it is -1.17.

Consider GCTCAGTGCCTTCTCTAATGACTGATAATT, for which the binding signal (log2 normalized intensity) is 1.14.

Regarding GGCATCATAAACTCCAACTCAGCCCCCAGC, the binding signal (log2 normalized intensity) worked out at 4.6. The figure for AGCCTTGAATTGGCATGAGATCCACCTAAG is -1.07. Then GGACAGCAGAGTGGAGGCCAGCGCCAGGCT, with -1.13. The figure for AGGGAGGAGGGATCAAGCAGGTGACCTTCG is 3.3; for TGCAGCCCACAGCCCGCTGTGCCTGTCACC it is -0.97.
